The supplement of paper PMC10037445
Several values for one entry are separate records, joined by “and”; a condition that tells them apart may be missing. Equal entries are not always repeated. ± gives the standard deviation of the averaged measurements. Over roughly 2,900 compounds, “NF-kB SEAP reporter activity, fold change vs agonist alone” has its median near 0.99; the highest 2% begin near 2.6. The list shows a part of the results.

Columns and labels:
[1] = system: RAW-Dual; experiment: NF-kB SEAP reporter activity, fold change vs agonist alone; cytotoxicity flag (confluency mask): cytotoxic (confluency <70% of control); higher = enhanced NF-kB activity
Outline: (§1)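 Reporter activity is given as fold change relative to agonist-alone wells. To measure it, 50 nL of library stock was pin-tooled onto RAW-Dual macrophages (50,000 cells/well, DMEM, 384-well plates), a PRR agonist followed 1 h later, and cells stayed at 37 °C, 5% CO2. Twenty hours on, supernatant was assayed for IRF (QuantiLuc luminescence) and NF-κB (QuantiBlue, 620 nm absorbance), and wells under 70% of agonist-control IncuCyte confluency in both mask sets were marked cytotoxic.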

[2] = system: RAW-Dual; experiment: NF-kB SEAP reporter activity, fold change vs agonist alone; higher = enhanced NF-kB activity; conditions: library stock concentration (final ~1000-fold dilution): 10 mM
Outline: as §1

[3] = system: RAW-Dual; experiment: NF-kB SEAP reporter activity, fold change vs agonist alone; cytotoxicity flag (confluency mask): not cytotoxic; higher = enhanced NF-kB activity
Outline: as §1

[4] = agonist: ODN 1826 (TLR9) 0.5 ug/mL
[5] = agonist: Pam2CSK4 (TLR2/6) 0.1 ug/mL
[6] = agonist: Pam3CSK4 (TLR2/1) 0.1 ug/mL
[7] = cytotoxicity flag (confluency mask): cytotoxic (confluency <70% of control), agonist: Imiquimod (TLR7) […]
[8] = cytotoxicity flag (confluency mask): cytotoxic (confluency <70% of control), agonist: MPLA (TLR4) […]
[9] = cytotoxicity flag (confluency mask): not cytotoxic, agonist: Imiquimod (TLR7) […]
[10] = cytotoxicity flag (confluency mask): not cytotoxic, agonist: MPLA (TLR4) […]

CC(=O)c1cc([N+](=O)[O-])c(Sc2ccc(F)cc2F)s1 (library stock concentration (final ~1000-fold dilution): 10 mM)
NF-kB SEAP reporter activity ([1]; agonist: LPS (TLR4) 0.1 ug/mL): 0.257 | NF-kB SEAP reporter activity [1, 4]: 1.47 | NF-kB SEAP reporter activity [1, 5]: 1.15 | NF-kB SEAP reporter activity [1, 6]: 0.767

CC(=O)c1cc([N+](=O)[O-])c(Sc2ccc(F)cc2F)s1
NF-kB SEAP reporter activity [2, 7]: 2.22 | NF-kB SEAP reporter activity [2, 8]: 0.387

C=CCc1ccc(O)c(-c2cc(CC=C)ccc2O)c1
NF-kB SEAP reporter activity [2, 9]: 0.984 ± 0.07 | NF-kB SEAP reporter activity [2, 10]: 0.885 ± 0.012

C=CCc1ccc(O)c(-c2cc(CC=C)ccc2O)c1 (library stock concentration (final ~1000-fold dilution): 10 mM)
NF-kB SEAP reporter activity ([3]; agonist: LPS (TLR4) 0.1 ug/mL): 0.933 ± 0.12 | NF-kB SEAP reporter activity [3, 4]: 0.588 ± 0.04 | NF-kB SEAP reporter activity [3, 5]: 0.795 ± 0.14 | NF-kB SEAP reporter activity [3, 6]: 0.855 ± 0.046

COc1cc(O)cc(O)c1C(=O)C=Cc1ccccc1
NF-kB SEAP reporter activity [2, 7]: 2.12 | NF-kB SEAP reporter activity [2, 8]: 0.714

COc1cc(O)cc(O)c1C(=O)C=Cc1ccccc1 (library stock concentration (final ~1000-fold dilution): 10 mM)
NF-kB SEAP reporter activity ([1]; agonist: LPS (TLR4) 0.1 ug/mL): 0.369 | NF-kB SEAP reporter activity [1, 4]: 0.565 | NF-kB SEAP reporter activity [1, 5]: 1.36 | NF-kB SEAP reporter activity [1, 6]: 0.553

CC(c1ccc2nccn2c1)n1nnc2ncc(-c3cnn(C)c3)nc21 (centres undefined) (library stock concentration (final ~1000-fold dilution): 10 mM)
NF-kB SEAP reporter activity ([3]; agonist: LPS (TLR4) 0.1 ug/mL): 1.22 | NF-kB SEAP reporter activity [3, 4]: 0.99 | NF-kB SEAP reporter activity [3, 5]: 1 | NF-kB SEAP reporter activity [3, 6]: 0.786

CC(c1ccc2nccn2c1)n1nnc2ncc(-c3cnn(C)c3)nc21 (centres undefined)
NF-kB SEAP reporter activity [2, 9]: 0.897 | NF-kB SEAP reporter activity [2, 10]: 1.07

Cc1onc(-c2c(Cl)cccc2Cl)c1C(=O)NC1C(=O)N2C1SC(C)(C)C2C(=O)O (centres undefined)
NF-kB SEAP reporter activity [2, 9]: 0.898 | NF-kB SEAP reporter activity [2, 10]: 0.979

Cc1onc(-c2c(Cl)cccc2Cl)c1C(=O)NC1C(=O)N2C1SC(C)(C)C2C(=O)O (centres undefined) (library stock concentration (final ~1000-fold dilution): 10 mM)
NF-kB SEAP reporter activity ([3]; agonist: LPS (TLR4) 0.1 ug/mL): 0.881 | NF-kB SEAP reporter activity [3, 4]: 0.949 | NF-kB SEAP reporter activity [3, 5]: 1.13 | NF-kB SEAP reporter activity [3, 6]: 1.07

C=C1CCN(C(C)C(O)(Cn2cncn2)c2ccc(F)cc2F)CC1 (centres undefined)
NF-kB SEAP reporter activity [2, 8]: 1.81

C=C1CCN(C(C)C(O)(Cn2cncn2)c2ccc(F)cc2F)CC1 (centres undefined) (library stock concentration (final ~1000-fold dilution): 10 mM)
NF-kB SEAP reporter activity ([1]; agonist: LPS (TLR4) 0.1 ug/mL): 1.58 | NF-kB SEAP reporter activity [1, 4]: 1.41 | NF-kB SEAP reporter activity [1, 5]: 0.89 | NF-kB SEAP reporter activity [1, 6]: 0.999

Cc1ccc2nc(NCCN)c3ncc(C)n3c2c1
NF-kB SEAP reporter activity [2, 9]: 1.17 | NF-kB SEAP reporter activity [2, 10]: 1.7

Cc1ccc2nc(NCCN)c3ncc(C)n3c2c1 (library stock concentration (final ~1000-fold dilution): 10 mM)
NF-kB SEAP reporter activity ([3]; agonist: LPS (TLR4) 0.1 ug/mL): 1.13 | NF-kB SEAP reporter activity [3, 4]: 0.745 | NF-kB SEAP reporter activity [3, 5]: 0.544 | NF-kB SEAP reporter activity [3, 6]: 0.572 | NF-kB SEAP reporter activity ([1]; agonist: LPS (TLR4) 0.1 ug/mL): 0.336 and 0.342 | NF-kB SEAP reporter activity [1, 4]: 0.189 and 0.336 | NF-kB SEAP reporter activity [1, 5]: 0.0751 and 0.168 | NF-kB SEAP reporter activity [1, 6]: 0.167 and 0.278

COc1ccc(CN(CCN(C)C)c2ncccn2)cc1 (library stock concentration (final ~1000-fold dilution): 10 mM)
NF-kB SEAP reporter activity ([3]; agonist: LPS (TLR4) 0.1 ug/mL): 1.16 | NF-kB SEAP reporter activity [3, 4]: 0.886 | NF-kB SEAP reporter activity [3, 5]: 0.965 | NF-kB SEAP reporter activity [3, 6]: 0.747

COc1ccc(CN(CCN(C)C)c2ncccn2)cc1
NF-kB SEAP reporter activity [2, 9]: 1.05 | NF-kB SEAP reporter activity [2, 10]: 1.13

Cc1ccc(Sc2ccccc2N2CCNCC2)c(C)c1
NF-kB SEAP reporter activity [2, 8]: 1.38

Cc1ccc(Sc2ccccc2N2CCNCC2)c(C)c1 (library stock concentration (final ~1000-fold dilution): 10 mM)
NF-kB SEAP reporter activity ([1]; agonist: LPS (TLR4) 0.1 ug/mL): 0.339 | NF-kB SEAP reporter activity [1, 4]: 0.37 | NF-kB SEAP reporter activity [1, 5]: 0.283 | NF-kB SEAP reporter activity [1, 6]: 0.36

CN1CCC(CNc2ccc3ncc(-c4cccc(OC(F)(F)F)c4)n3n2)CC1
NF-kB SEAP reporter activity [2, 9]: 0.949 | NF-kB SEAP reporter activity [2, 10]: 0.925

CN1CCC(CNc2ccc3ncc(-c4cccc(OC(F)(F)F)c4)n3n2)CC1 (library stock concentration (final ~1000-fold dilution): 10 mM)
NF-kB SEAP reporter activity ([3]; agonist: LPS (TLR4) 0.1 ug/mL): 1.34 | NF-kB SEAP reporter activity [3, 4]: 0.983 | NF-kB SEAP reporter activity [3, 5]: 0.674 | NF-kB SEAP reporter activity [3, 6]: 0.943

CS(=O)(=O)O.Cn1cc(C2=C(c3cn(CCCSC(=N)N)c4ccccc34)C(=O)NC2=O)c2ccccc21 (library stock concentration (final ~1000-fold dilution): 10 mM)
NF-kB SEAP reporter activity ([1]; agonist: LPS (TLR4) 0.1 ug/mL): 0.173 | NF-kB SEAP reporter activity [1, 4]: 0.185 | NF-kB SEAP reporter activity [1, 5]: 0.0599 | NF-kB SEAP reporter activity [1, 6]: 0.138

CS(=O)(=O)O.Cn1cc(C2=C(c3cn(CCCSC(=N)N)c4ccccc34)C(=O)NC2=O)c2ccccc21
NF-kB SEAP reporter activity [2, 7]: 0.13 | NF-kB SEAP reporter activity [2, 8]: 0.222

COc1cccc2c1C(=O)c1c(O)c3c(c(O)c1C2=O)CC(O)(C(=O)CO)CC3OC1CC(N)C(OC2CCCCO2)C(C)O1 (centres undefined) (library stock concentration (final ~1000-fold dilution): 10 mM)
NF-kB SEAP reporter activity ([3]; agonist: LPS (TLR4) 0.1 ug/mL): 0.245 | NF-kB SEAP reporter activity [3, 4]: 0.286 | NF-kB SEAP reporter activity [3, 5]: 0.135 | NF-kB SEAP reporter activity [3, 6]: 0.132

COc1cccc2c1C(=O)c1c(O)c3c(c(O)c1C2=O)CC(O)(C(=O)CO)CC3OC1CC(N)C(OC2CCCCO2)C(C)O1 (centres undefined)
NF-kB SEAP reporter activity [2, 9]: 0.23 | NF-kB SEAP reporter activity [2, 10]: 0.21

N#C/C(C(=O)c1ccc(Cl)cc1Cl)=C1\NC(=O)c2ccccc2N1 (library stock concentration (final ~1000-fold dilution): 10 mM)
NF-kB SEAP reporter activity ([3]; agonist: LPS (TLR4) 0.1 ug/mL): 1.13 | NF-kB SEAP reporter activity [3, 4]: 0.982 | NF-kB SEAP reporter activity [3, 5]: 0.65 | NF-kB SEAP reporter activity [3, 6]: 0.693

N#C/C(C(=O)c1ccc(Cl)cc1Cl)=C1\NC(=O)c2ccccc2N1
NF-kB SEAP reporter activity [2, 9]: 0.86 | NF-kB SEAP reporter activity [2, 10]: 1.11

COCCOc1nc(N)c2[nH]c(=O)n(Cc3ccc(C(=O)O)cc3)c2n1
NF-kB SEAP reporter activity [2, 9]: 1.8 | NF-kB SEAP reporter activity [2, 10]: 2.54

COCCOc1nc(N)c2[nH]c(=O)n(Cc3ccc(C(=O)O)cc3)c2n1 (library stock concentration (final ~1000-fold dilution): 10 mM)
NF-kB SEAP reporter activity ([3]; agonist: LPS (TLR4) 0.1 ug/mL): 7.55 | NF-kB SEAP reporter activity [3, 4]: 2.13 | NF-kB SEAP reporter activity [3, 5]: 1.46 | NF-kB SEAP reporter activity [3, 6]: 2.77

CN1CCN(Cc2ccc(NC(=O)Nc3ccc(Oc4cc(NC(=O)C5CC5)ncn4)cc3)cc2C(F)(F)F)CC1 (library stock concentration (final ~1000-fold dilution): 10 mM)
NF-kB SEAP reporter activity ([1]; agonist: LPS (TLR4) 0.1 ug/mL): 0.463 | NF-kB SEAP reporter activity [1, 4]: 0.172 | NF-kB SEAP reporter activity [1, 5]: 0.0828 | NF-kB SEAP reporter activity [1, 6]: 0.146

CN1CCN(Cc2ccc(NC(=O)Nc3ccc(Oc4cc(NC(=O)C5CC5)ncn4)cc3)cc2C(F)(F)F)CC1
NF-kB SEAP reporter activity [2, 7]: 0.136 | NF-kB SEAP reporter activity [2, 8]: 0.267

COCC1CC(c2ncc(-c3ccc4c(c3)COc3cc5c(ccc6[nH]c(C7CCC(C)N7C(=O)C(NC(=O)OC)C(C)C)nc65)cc3-4)[nH]2)N(C(=O)C(NC(=O)OC)c2ccccc2)C1 (centres undefined) (library stock concentration (final ~1000-fold dilution): 10 mM)
NF-kB SEAP reporter activity ([3]; agonist: LPS (TLR4) 0.1 ug/mL): 1.55 | NF-kB SEAP reporter activity [3, 4]: 0.986 | NF-kB SEAP reporter activity [3, 5]: 0.794 | NF-kB SEAP reporter activity [3, 6]: 0.591

COCC1CC(c2ncc(-c3ccc4c(c3)COc3cc5c(ccc6[nH]c(C7CCC(C)N7C(=O)C(NC(=O)OC)C(C)C)nc65)cc3-4)[nH]2)N(C(=O)C(NC(=O)OC)c2ccccc2)C1 (centres undefined)
NF-kB SEAP reporter activity [2, 9]: 0.98 | NF-kB SEAP reporter activity [2, 10]: 1.06

NC(=O)c1cccc2nc(-c3ccc(C4CCCN4)cc3F)[nH]c12 (centres undefined)
NF-kB SEAP reporter activity [2, 9]: 1.14 | NF-kB SEAP reporter activity [2, 10]: 0.748

NC(=O)c1cccc2nc(-c3ccc(C4CCCN4)cc3F)[nH]c12 (centres undefined) (library stock concentration (final ~1000-fold dilution): 10 mM)
NF-kB SEAP reporter activity ([3]; agonist: LPS (TLR4) 0.1 ug/mL): 0.553 | NF-kB SEAP reporter activity [3, 4]: 0.198 | NF-kB SEAP reporter activity [3, 5]: 1.03 | NF-kB SEAP reporter activity [3, 6]: 1
